# The antibiotic and cytotoxicity screens of Wong et al. (2023)
# The list shows a part of the results.
# How the values were obtained:
# [1] = test system: HSkMC (human skeletal muscle cells); experiment: cytotoxicity call (relative viability < 0.9); conditions: 10 µM
# [2] = test system: HepG2; experiment: cytotoxicity call (relative viability < 0.9); conditions: 10 µM
# [3] = test system: S. aureus RN4220; experiment: growth inhibition call (relative growth <= 0.2); conditions: 50 µM
SMILES,cytotoxicity call [1],cytotoxicity call [2],growth inhibition call [3]
Cc1cc(C)c(S(=O)(=O)N2CCO[C@@H]2CNC(=O)C(=O)NCCCN2CCCC2=O)c(C)c1,inactive,inactive,inactive
C[C@@H]1CCCCO[C@H](CN(C)S(=O)(=O)c2ccccc2)[C@H](C)CN([C@H](C)CO)C(=O)c2cc(NC(=O)Nc3ccc(C(F)(F)F)cc3)ccc2O1,inactive,inactive,inactive
NC(=O)NC[C@H](N)C(=O)O,inactive,inactive,inactive
Cc1ccc(-c2ccc3c(c2)O[C@@H](CN(C)C(=O)Nc2ccc(C(F)(F)F)cc2)[C@@H](C)CN([C@H](C)CO)S3(=O)=O)cc1,inactive,active,inactive
C[C@H](CO)N1C[C@H](C)[C@H](CN(C)S(C)(=O)=O)Oc2ccc(NC(=O)Nc3ccc4c(c3)OCO4)cc2C1=O,inactive,inactive,inactive
C[C@@H]1CN([C@@H](C)CO)S(=O)(=O)c2ccc(C#C[C@@H](C)O)cc2O[C@H]1CN(C)C(=O)Cc1ccccn1,inactive,inactive,inactive
C[C@H](CO)N1C[C@H](C)[C@@H](CN(C)S(=O)(=O)c2ccc(Oc3ccccc3)cc2)OCc2cn(nn2)CCCC1=O,inactive,inactive,inactive
O=C(CCCCCCC(=O)Nc1ccc([C@H]2O[C@@H](CSc3nc(-c4ccccc4)c(-c4ccccc4)o3)C[C@@H](c3ccc(CO)cc3)O2)cc1)NO,inactive,inactive,inactive
C[C@@H]1CN([C@@H](C)CO)C(=O)c2cc(NC(=O)CCCN(C)C)ccc2O[C@H]1CN(C)S(=O)(=O)c1ccc(Cl)cc1,inactive,inactive,inactive
Cc1noc(C)c1S(=O)(=O)Nc1ccc2c(c1)C(=O)N([C@H](C)CO)C[C@H](C)[C@@H](CN(C)Cc1ccc(-c3ccccc3)cc1)O2,inactive,inactive,inactive
O=C(C[C@@H]1C[C@H]2c3cc(NC(=O)Nc4ccc(C(F)(F)F)cc4)ccc3O[C@H]2[C@@H](CO)O1)NCc1cc(F)ccc1F,inactive,inactive,inactive
O=C(Nc1ccc(-c2nc3ccc(NC(=O)c4ccccc4[N+](=O)[O-])cc3[nH]2)cc1)c1ccccc1[N+](=O)[O-],inactive,active,inactive
CN1C(=O)C[C@@H](C(=O)N[C@@H](Cc2cnc[nH]2)C(=O)N2CCC[C@H]2C(N)=O)NC1=O,inactive,inactive,inactive
Cc1noc(C)c1NC(=O)Nc1ccc2c(c1)C(=O)N([C@H](C)CO)C[C@@H](C)[C@@H](CN(C)Cc1ccccc1)OCCCC[C@@H](C)O2,inactive,inactive,inactive
C=C[C@](C)(CC[C@@]1(C)[C@H](C)C[C@H](O[C@@H]2O[C@@H](C)[C@H](O)[C@@H](O[C@@H]3O[C@H](CO[C@@H]4O[C@@H](C)[C@H](O)[C@@H](O)[C@H]4O)[C@@H](O)[C@H](O)[C@H]3O)[C@H]2O)[C@@]2(C)C(C)=CCC[C@H]12)O[C@@H]1OC[C@H](O)[C@H](O)[C@H]1O[C@@H]1O[C@@H](C)[C@H](O)[C@@H](O)[C@H]1O,inactive,inactive,inactive
